Results as given in patent US10604555B2, “GIP derivatives and uses thereof” (priority 2018, dated 2020).
Not every detail of the peptide structures is certain; ends, links or a residue may be inferred. For at least one compound, name, drawing or mass did not settle the structure. *1 amine or outer side, *2 acyl side, *3 side chain or, on linkers, in order; H or OH if unused. Where a SMILES comes first, the peptide text is derived from it. Side-chain parts run from the residue outwards. [ ]: non-standard residue; d: D form. The star is where a group is joined. X1 = O=C(O)CCCCCCCCCCCCCCCCCCC(=O)NCC1CCC(C(=O)*)CC1; γGlu = O=C(O)[C@H](CCC(=O)[*:2])N[*:1]; Nle = CCCC[C@H](N)C(=O)O

Assays:
Type in all cases: physicochemical
[1] = ThT fibrillation assay (physical stability); settings: 250 μM, pH 7.4, 37° C., 45 hours of incubation
Method: The Thioflavin T assay was performed as outlined in Schlein (2017), AAPS J, 19(2), 397-408.
This has traditionally been measured by visual inspection of the sample. However, that kind of measurement is very cumbersome and depending on the observer. Therefore, the application of a small molecule indicator probe is much more advantageous. Thioflavin T (ThT) is such a probe and has a distinct fluorescence signature when binding to fibrils [Naiki et al. (1989) Anal. Biochem. 177, 244-249; LeVine (1999) Methods. Enzymol. 309, 274-284].
The time course for fibril formation can be described by a sigmoidal curve with the following expression [Nielsen et al. (2001) Biochemistry 40, 6036-6046]:
Here, F is the ThT fluorescence at the time t. The constant t0 is the time needed to reach 50% of maximum fluorescence. The two important parameters describing fibril formation are the lag-time calculated by t0−2τ and the apparent rate constant kapp 1/τ.
Few of those intermediates nucleate to form a template onto which further intermediates may assembly and the fibrillation proceeds. The lag-time corresponds to the interval in which the critical mass of nucleus is built up and the apparent rate constant is the rate with which the fibril itself is formed.
Samples are prepared freshly before each assay. The drug substance was solved with 250 μM of the GIP derivative in 8 mM phosphate, 14 mg/mL propylene glycol, 58 mM phenol, pH 7.4. The pH of the sample was adjusted to the desired value using appropriate amounts of concentrated NaOH and HCl. Thioflavin T was added to the samples from a stock solution in H2O to a final concentration of 1 μM.
Sample aliquots of 200 μl were placed in each well of a 96 well microtiter plate (Packard OptiPlate™-96, white polystyrene). Four replica of each sample (corresponding to one test condition) was placed in one column of wells. The plate was sealed with Scotch Pad (Qiagen).
Incubation, shaking and measurement of the ThT fluorescence emission were done in a Fluoroskan Ascent FL fluorescence platereader (Thermo Labsystems). […] Fluorescence measurement was done using excitation through a 444 nm filter and measurement of emission through a 485 nm filter.
Each run was initiated by incubating the plate at the assay temperature for 10 min. The plate was measured every 20 minutes for a desired period of time. Between each measurement, the plate was shaken and heated as described.
After completion of the ThT assay the replica of each sample was pooled and centrifuged at 20000 rpm for 30 minutes at 18° C. The supernatant was filtered through a 0.22 μm filter and an aliquot was transferred to a HPLC vial. The concentration of the filtered sample relative to the initial sample (in percentage) was reported as the recovery.
The measurement points were saved in Microsoft Excel format for further processing and curve drawing and fitting was performed using GraphPad Prism. […] The data points were a mean of the four replica and shown with standard deviation error bars. Only data obtained in the same experiment (i.e. samples on the same plate) were presented in the same graph ensuring a relative measure of fibrillation between experiments.
The data set may be fitted to Eq. (1).

[2] = Dynamic Light Scattering Stability Index (DLS-SI); settings: 250 μM, pH 7.4, 4 weeks at 25° C.
[3] = Chemical stability: HMWP formation by SEC-MS; settings: 37° C., 4 weeks, 250 μM, pH 7.4
Method: The aim of this study is to determine the chemical stability of GIP derivative compositions. As a measure of stability of the GIP derivative composition, the formation of high molecular weight peptide formation (% HMWP) as a function of time was analysed by size-exclusion chromatography (SEC-MS). Further, the purity loss of the GIP derivative compositions was measured by LCMS. Samples for chemical stability assays were freshly prepared before each assay. […] The pH of the sample was adjusted to the desired value using appropriate amounts of concentrated NaOH and HCl. […] Formation of covalent oligomers (HMWPs) was analysed and identified by a SEC-MS method. […] The LC system was coupled to both a TUV detector operated at 215 nm, 10 Hz and a high resolution QToF mass spectrometer from Waters (Synapt G2S) operated in positive ion mode and m/z range of 100 to 4000 with normal resolution setting. Lock mass correction against Leu-Enkephalin was done every 31 sec. Spectra were processed in MassLynx version 4.1 and MaxEnt deconvoluted.

[4] = Chemical stability: purity loss by LCMS; settings: 37° C., 4 weeks, 250 μM, pH 7.4
Method: The aim of this study is to determine the chemical stability of GIP derivative compositions. As a measure of stability of the GIP derivative composition, the formation of high molecular weight peptide formation (% HMWP) as a function of time was analysed by size-exclusion chromatography (SEC-MS). Further, the purity loss of the GIP derivative compositions was measured by LCMS. Samples for chemical stability assays were freshly prepared before each assay. […] The pH of the sample was adjusted to the desired value using appropriate amounts of concentrated NaOH and HCl. […] The column oven was kept at 55° C. […] The solvents were pumped from a binary solvent manager system and mixed on the high pressure side in a mixer with a volume of 50 μl. The gradient and flow can be seen in table 4: [table] A Flow-through-needle auto sampler at 8° C. was used to inject 1 μl of each sample. The effluent passed through a tunable UV detector (TUV) tuned to 215 nm. The outlet from the UV detector passed to the electrospray source of the mass spectrometer. The capillary was held at 3 kV and dry nitrogen gas was purged at a flow of 750 I/h and a temperature of 250° C. The source block was kept at 120° C. and the large bore cone was flushed with nitrogen at 50 I/h with standard electrode potentials on the rest of the instrument. The MS was operated in high resolution mode with a nominal resolution of 35000. The ToF analyser was operated in ADC mode with an m/z window from 100-2000.

Compound	ThT Assay Lag time [1] [h]	DLS-SI Dimensionless [2]	DLS-SI precipitates [2]	HMWP formation (%/month) [3] [%/month]	Purity loss (%/month) [4] [%/month]
CCCC[C@H](NC(=O)[C@H](C)NC(=O)[C@@H](NC(=O)[C@H](CO)NC(=O)[C@H](Cc1ccc(O)cc1)NC(=O)[C@H](CC(=O)O)NC(=O)[C@H](CO)NC(=O)[C@@H](NC(=O)[C@H](Cc1ccccc1)NC(=O)[C@@H](NC(=O)CNC(=O)[C@H](CCC(=O)O)NC(=O)[C@H](C)NC(=O)[C@@H](Cc1ccc(O)cc1)NC(C)=O)[C@@H](C)O)[C@@H](C)CC)[C@@H](C)CC)C(=O)N[C@@H](CC(=O)O)C(=O)N[C@@H](CCCCN)C(=O)N[C@H](C(=O)N[C@@H](CCCNC(=N)N)C(=O)N[C@@H](CCC(N)=O)C(=O)N[C@@H](CCC(N)=O)C(=O)N[C@@H](CC(=O)O)C(=O)N[C@@H](Cc1ccccc1)C(=O)N[C@H](C(=O)N[C@@H](CCCCNC(=O)CC[C@H](NC(=O)CC[C@H](NC(=O)CC[C@H](NC(=O)C1CCC(CNC(=O)CCCCCCCCCCCCCCCCCCC(=O)O)CC1)C(=O)O)C(=O)O)C(=O)O)C(=O)N[C@@H](Cc1c[nH]c2ccccc12)C(=O)N[C@@H](CC(C)C)C(=O)N[C@@H](CC(C)C)C(=O)N[C@@H](C)C(=O)N[C@@H](CCC(N)=O)C(=O)N[C@@H](CCCCN)C(=O)NCC(=O)O)C(C)C)[C@@H](C)CC (stereo partly drawn) [Compound 8, N{1}-acetyl,N{Epsilon-24}-[(4S)-4-carboxy-4-[[(4S)-4-carboxy-4-[[(4S)-4-carboxy-4-[[4-[(19-carboxynonadecanoylamino)methyl]cyclohexanecarbonyl]amino]-butanoyl]amino]butanoyl]amino]butanoyl]-[D-Tyr1,Nle14,Arg18,Lys24]-hGIP(1-31)]	>45	0.6	No	0.80	6.00
CCCC[C@H](NC(=O)[C@H](C)NC(=O)[C@@H](NC(=O)[C@H](CO)NC(=O)[C@H](Cc1ccc(O)cc1)NC(=O)[C@H](CC(=O)O)NC(=O)[C@H](CO)NC(=O)[C@@H](NC(=O)[C@H](Cc1ccccc1)NC(=O)[C@@H](NC(=O)CNC(=O)[C@H](CCC(=O)O)NC(=O)[C@H](C)NC(=O)[C@@H](Cc1ccc(O)cc1)NC(C)=O)[C@@H](C)O)[C@@H](C)CC)[C@@H](C)CC)C(=O)N[C@@H](CC(=O)O)C(=O)N[C@@H](CCCCN)C(=O)N[C@H](C(=O)N[C@@H](Cc1c[nH]cn1)C(=O)N[C@@H](CCC(N)=O)C(=O)N[C@@H](CCC(=O)O)C(=O)N[C@@H](CC(=O)O)C(=O)N[C@@H](Cc1ccccc1)C(=O)N[C@H](C(=O)N[C@@H](CCCCNC(=O)CC[C@H](NC(=O)CC[C@H](NC(=O)CC[C@H](NC(=O)C1CCC(CNC(=O)CCCCCCCCCCCCCCCCCCC(=O)O)CC1)C(=O)O)C(=O)O)C(=O)O)C(=O)N[C@@H](Cc1c[nH]c2ccccc12)C(=O)N[C@@H](CC(C)C)C(=O)N[C@@H](CC(C)C)C(=O)N[C@@H](C)C(=O)N[C@@H](CCC(N)=O)C(=O)N[C@@H](CCCCN)C(=O)NCC(=O)O)C(C)C)[C@@H](C)CC (stereo partly drawn) [Compound 22, N{1}-acetyl,N{Epsilon-24}-[(4S)-4-carboxy-4-[[(4S)-4-carboxy-4-[[(4S)-4-carboxy-4-[[4-[(19-carboxynonadecanoylamino)methyl]cyclohexanecarbonyl]amino]butanoyl]-amino]butanoyl]amino]butanoyl]-[D-Tyr1,Nle14,Glu20,Lys24]-hGIP(1-31)] (Ac-[dY]AEGTFISDYSIA[Nle]DKIHQEDFVK([γGlu-γGlu-γGlu-X1])WLLAQKG-OH; C-terminus assumed)	>45	1.7	No	0.10	4.80
CCCC[C@H](NC(=O)[C@H](C)NC(=O)[C@@H](NC(=O)[C@H](CO)NC(=O)[C@H](Cc1ccc(O)cc1)NC(=O)[C@H](CC(=O)O)NC(=O)[C@H](CO)NC(=O)[C@@H](NC(=O)[C@H](Cc1ccccc1)NC(=O)[C@@H](NC(=O)CNC(=O)[C@H](CCC(=O)O)NC(=O)[C@H](C)NC(=O)[C@@H](Cc1ccc(O)cc1)NC(C)=O)[C@@H](C)O)[C@@H](C)CC)[C@@H](C)CC)C(=O)N[C@@H](CC(=O)O)C(=O)N[C@@H](CCCCN)C(=O)N[C@H](C(=O)N[C@@H](Cc1c[nH]cn1)C(=O)N[C@@H](CCC(N)=O)C(=O)N[C@@H](CCC(N)=O)C(=O)N[C@@H](CC(=O)O)C(=O)N[C@@H](Cc1ccccc1)C(=O)N[C@H](C(=O)N[C@@H](CCCCNC(=O)CC[C@H](NC(=O)CC[C@H](NC(=O)CC[C@H](NC(=O)C1CCC(CNC(=O)CCCCCCCCCCCCCCCCCCC(=O)O)CC1)C(=O)O)C(=O)O)C(=O)O)C(=O)N[C@@H](Cc1c[nH]c2ccccc12)C(=O)N[C@@H](CC(C)C)C(=O)N[C@@H](CC(C)C)C(=O)N[C@@H](C)C(=O)N[C@@H](CCC(N)=O)C(=O)N[C@@H](CCCCN)C(=O)N1CCC[C@H]1C(N)=O)C(C)C)[C@@H](C)CC (stereo partly drawn) [Compound 29, N{1}-acetyl,N{Epsilon-24}-[(4S)-4-carboxy-4-[[(4S)-4-carboxy-4-[[(4S)-4-carboxy-4-[[4-[(19-carboxynonadecanoylamino)methyl]cyclohexanecarbonyl]amino]butanoyl]-amino]butanoyl]amino]butanoyl]-[D-Tyr1,Nle14,Lys24,Pro31]-hGIP(1-31) amide] (Ac-[dY]AEGTFISDYSIA[Nle]DKIHQQDFVK([γGlu-γGlu-γGlu-X1])WLLAQKP-NH2)	>45	–	–	0.31	2.10
